Where a chain is given by its changes, count along the chain named. No constants are given. Whether binding was seen depends on the method and setting. In cells and extracts the contact can be indirect. Some binding calls cover weakened binding; strength is not graded here. For some of these results: Tags and fused reporters may be left off the sequences shown. Values belong to the substance of their own block, whether it stands above or below them.
How the values were obtained:
[1] = biological target: T1, HA-tagged full-length (FL) USP1 (UniProt O94782); assay: co-IP; HA- and Myc-tagged proteins co-transfected in HEK-293T cells (K130Q also in RBE); anti-HA magnetic beads or anti-MYC agarose beads overnight at 4 °C; IB with antibodies against HA or Myc
T1 sequence: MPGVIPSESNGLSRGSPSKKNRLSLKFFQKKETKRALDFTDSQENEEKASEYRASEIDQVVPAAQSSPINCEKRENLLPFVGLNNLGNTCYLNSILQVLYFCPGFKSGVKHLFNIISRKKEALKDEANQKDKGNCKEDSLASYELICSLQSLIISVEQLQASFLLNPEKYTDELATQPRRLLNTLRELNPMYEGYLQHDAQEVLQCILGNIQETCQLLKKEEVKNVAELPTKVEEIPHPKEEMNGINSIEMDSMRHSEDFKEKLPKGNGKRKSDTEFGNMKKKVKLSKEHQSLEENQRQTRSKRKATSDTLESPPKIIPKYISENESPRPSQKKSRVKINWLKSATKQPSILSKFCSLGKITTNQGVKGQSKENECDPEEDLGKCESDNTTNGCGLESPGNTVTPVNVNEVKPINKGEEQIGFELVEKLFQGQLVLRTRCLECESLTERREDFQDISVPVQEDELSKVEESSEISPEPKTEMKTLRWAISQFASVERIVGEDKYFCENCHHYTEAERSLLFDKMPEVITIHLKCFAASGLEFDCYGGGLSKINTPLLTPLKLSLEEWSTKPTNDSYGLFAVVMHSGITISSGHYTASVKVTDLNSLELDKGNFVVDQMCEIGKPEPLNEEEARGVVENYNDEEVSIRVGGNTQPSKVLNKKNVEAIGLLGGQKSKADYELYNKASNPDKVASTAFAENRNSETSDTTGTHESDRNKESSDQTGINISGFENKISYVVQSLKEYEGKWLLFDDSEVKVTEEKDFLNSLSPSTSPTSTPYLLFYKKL

By UniProt entry, the sequences of proteins in these tests, tags left out. Where a name states a change or a piece, a line headed by the entry shows the natural chain unless it says otherwise.
UniProt P09874: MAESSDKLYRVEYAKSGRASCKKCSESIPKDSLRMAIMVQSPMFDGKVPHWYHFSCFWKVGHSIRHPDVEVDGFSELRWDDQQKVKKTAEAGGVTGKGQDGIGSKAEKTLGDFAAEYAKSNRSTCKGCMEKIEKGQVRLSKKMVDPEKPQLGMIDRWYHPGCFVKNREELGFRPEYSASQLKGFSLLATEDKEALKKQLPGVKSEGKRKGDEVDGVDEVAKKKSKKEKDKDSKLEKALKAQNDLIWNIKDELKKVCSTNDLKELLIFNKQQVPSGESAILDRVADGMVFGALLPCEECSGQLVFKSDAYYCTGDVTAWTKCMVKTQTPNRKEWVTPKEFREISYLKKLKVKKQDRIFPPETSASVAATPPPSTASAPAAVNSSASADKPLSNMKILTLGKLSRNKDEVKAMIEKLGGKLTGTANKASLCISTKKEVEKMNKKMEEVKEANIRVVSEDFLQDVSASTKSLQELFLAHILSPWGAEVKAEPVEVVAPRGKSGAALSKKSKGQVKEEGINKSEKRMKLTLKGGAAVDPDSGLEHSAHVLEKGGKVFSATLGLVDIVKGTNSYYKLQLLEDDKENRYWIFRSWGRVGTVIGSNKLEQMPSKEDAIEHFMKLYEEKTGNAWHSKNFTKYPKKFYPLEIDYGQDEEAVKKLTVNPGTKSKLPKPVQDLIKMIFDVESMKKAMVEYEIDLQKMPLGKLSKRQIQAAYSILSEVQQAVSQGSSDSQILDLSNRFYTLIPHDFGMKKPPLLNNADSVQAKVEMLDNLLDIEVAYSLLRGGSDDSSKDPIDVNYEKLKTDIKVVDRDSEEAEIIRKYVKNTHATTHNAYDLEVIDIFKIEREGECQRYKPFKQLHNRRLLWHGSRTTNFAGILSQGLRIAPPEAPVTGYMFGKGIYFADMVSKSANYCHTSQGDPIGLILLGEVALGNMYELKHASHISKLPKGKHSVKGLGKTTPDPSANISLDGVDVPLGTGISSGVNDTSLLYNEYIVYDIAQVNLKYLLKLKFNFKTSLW

HA-USP1-1-200 = biological target: T2, HA-USP1-1-200 (UniProt O94782); assay: as above
T2 sequence: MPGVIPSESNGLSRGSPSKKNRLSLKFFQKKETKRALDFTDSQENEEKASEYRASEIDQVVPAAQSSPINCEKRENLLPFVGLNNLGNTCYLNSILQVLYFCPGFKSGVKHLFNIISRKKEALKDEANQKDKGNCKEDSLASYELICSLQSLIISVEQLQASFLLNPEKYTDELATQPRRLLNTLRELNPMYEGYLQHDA

HA-USP1-1-400 = biological target: T3, HA-USP1-1-400 (UniProt O94782); assay: as above
T3 sequence: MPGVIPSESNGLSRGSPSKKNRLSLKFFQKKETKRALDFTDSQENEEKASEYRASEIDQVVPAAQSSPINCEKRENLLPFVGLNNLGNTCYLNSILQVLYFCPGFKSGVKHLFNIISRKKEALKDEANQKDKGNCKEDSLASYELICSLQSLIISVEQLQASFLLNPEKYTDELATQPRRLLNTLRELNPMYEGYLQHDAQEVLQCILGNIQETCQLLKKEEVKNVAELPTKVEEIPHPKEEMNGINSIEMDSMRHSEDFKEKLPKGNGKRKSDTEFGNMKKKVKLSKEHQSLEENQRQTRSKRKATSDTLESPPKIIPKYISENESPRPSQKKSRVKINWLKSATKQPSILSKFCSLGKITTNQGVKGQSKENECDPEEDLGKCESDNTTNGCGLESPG

HA-USP1-201-785 = biological target: T4, HA-USP1-201-785 (UniProt O94782); assay: as above
T4 sequence: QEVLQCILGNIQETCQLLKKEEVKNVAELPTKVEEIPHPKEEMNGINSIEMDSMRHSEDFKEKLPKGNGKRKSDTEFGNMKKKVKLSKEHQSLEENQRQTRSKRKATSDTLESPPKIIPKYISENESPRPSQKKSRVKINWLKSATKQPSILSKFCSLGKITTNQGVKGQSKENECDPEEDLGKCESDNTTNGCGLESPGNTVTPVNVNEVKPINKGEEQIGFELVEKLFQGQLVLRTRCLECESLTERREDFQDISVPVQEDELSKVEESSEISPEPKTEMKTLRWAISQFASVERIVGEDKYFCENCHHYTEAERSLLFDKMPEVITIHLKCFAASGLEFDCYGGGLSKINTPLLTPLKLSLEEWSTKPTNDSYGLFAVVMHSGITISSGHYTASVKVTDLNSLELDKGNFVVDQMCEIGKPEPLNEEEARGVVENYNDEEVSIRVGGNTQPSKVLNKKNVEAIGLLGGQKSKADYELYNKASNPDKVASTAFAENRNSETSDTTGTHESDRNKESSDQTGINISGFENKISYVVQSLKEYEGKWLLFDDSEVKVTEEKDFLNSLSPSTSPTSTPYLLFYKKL

HA-USP1-K130Q = biological target: T5, HA-USP1-K130Q (UniProt O94782); assay: as above
T5 sequence: T1 sequence with K130Q

HA-USP1-401-785 = biological target: T6, HA-USP1-401-785 (UniProt O94782); assay: as above
T6 sequence: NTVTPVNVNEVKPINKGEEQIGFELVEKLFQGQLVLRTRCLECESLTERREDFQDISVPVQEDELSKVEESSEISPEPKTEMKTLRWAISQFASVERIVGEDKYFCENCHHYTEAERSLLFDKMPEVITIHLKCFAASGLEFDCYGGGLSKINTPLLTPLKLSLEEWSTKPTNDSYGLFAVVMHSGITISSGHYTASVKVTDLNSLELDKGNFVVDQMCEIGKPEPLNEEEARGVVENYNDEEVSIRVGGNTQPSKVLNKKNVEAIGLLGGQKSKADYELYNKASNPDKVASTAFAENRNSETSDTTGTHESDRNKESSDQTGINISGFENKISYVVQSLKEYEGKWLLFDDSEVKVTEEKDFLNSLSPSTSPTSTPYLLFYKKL

[2] = biological target: T7, USP1 (ubiquitin-specific protease 1), endogenous (human (endogenous in HuCC-T1, HCCC-9810, RBE)) (UniProt O94782); assay: proximity ligation; in situ PLA on fixed cells with anti-USP1 and anti-PARP1 antibodies (Duolink rabbit PLUS, mouse MINUS)
T7 sequence: T1 sequence

[3] = biological target: T7, USP1 (ubiquitin-specific protease 1), endogenous (human (endogenous in HuCC-T1, HCCC-9810, RBE)); assay: co-IP; endogenous proteins in lysates of HuCC-T1, HCCC-9810 and RBE cells; 3 ug antibody overnight at 4 °C, Protein A/G beads; IgG as isotype control

binding [1]: binds
Substance: Myc-PARP1-1-476 (from UniProt P09874 1-476) (domain or fragment)

binding (HA-USP1-1-200): no binding
binding (HA-USP1-1-400): no binding
binding (HA-USP1-201-785): binds
binding (HA-USP1-K130Q): binds
binding [1]: binds
binding (HA-USP1-401-785): binds
Substance: Myc-tagged full-length (FL) PARP1 (from UniProt P09874 1-1014) (enzyme)

Continued, substance first:

Substance: Myc-PARP1-1-779 (from UniProt P09874 1-779) (domain or fragment)
binding [1]: binds

Substance: Myc-PARP1-203-1014 (from UniProt P09874 203-1014) (domain or fragment)
binding [1]: binds

Substance: Myc-PARP1-1-638 (from UniProt P09874 1-638) (domain or fragment)
binding [1]: binds

Substance: Myc-PARP1-1-203 (from UniProt P09874 1-203) (domain or fragment)
binding [1]: no binding

Substance: Poly (ADP-ribose) polymerase 1 (PARP1), endogenous (from UniProt P09874 1-1014) (enzyme)
binding [2]: binds
binding [3]: binds
